From the supplement of paper PMC11417369 come the findings set out here.

± gives the standard deviation of the averaged measurements. The list shows a part of the results.

This assay deals with PfAP2-G AP2 domain (GST-tagged). Description: gcPBM binding intensity (ln(normalized median fluorescence intensity)); higher = stronger DNA binding. The method, boiled down:
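The binding buffer was 1× PBS containing 1% milk, 0.2 mg/ml BSA, 0.5% salmon testes DNA and 0.03% Triton X-100. In it, GST-tagged P. falciparum DNA-binding domains expressed in E. coli were applied for 1 h to an Agilent 4 × 180k array of primer-extended double-stranded 36-bp intergenic genomic probes plus negative controls. Binding intensity, read with Alexa488 anti-GST antibody and a 488 nm scan, is the highest Masliner-normalised natural-log median intensity across replicate spots of either probe orientation.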
Regarding “TACAACATATTCAAATGTACAAATATAGGAATGAAA [XGTACX_site2730]”, the “gcPBM binding intensity (ln)” value was found to be 10.6 ± 0.2.

Take “CACACGCACAGACACACACACACATATAAATATGTA [CACACA_site6300]”: the “gcPBM binding intensity (ln)” value was found to be 10.5 ± 0.43. As for “ATATGATTTCACAAGACACACACATACAAATTTATA [CACACA_site9296]”, the “gcPBM binding intensity (ln)” value came to 10.2 ± 0.2.

For “TTATGTATTCATAACACATGCAAATAGGATCATATA [TGCATGCA_site731]”, the “gcPBM binding intensity (ln)” value is 10.04 ± 0.049. Next, “CGTTAGAGGGCTTTATCACACATGAAAAAAAAAAAA [CACACA_site5155]”: 10.1 ± 0.49; “TATATTTATTTTAACACACACATATATATATTATAT [CACACA_site4729]”: 10.1 ± 0.15. For the sequence “TCCCAAGGAGTAGGCACACATAAAATATTATACATA [CACACA_site717]”, the “gcPBM binding intensity (ln)” value is 10.1 ± 0.13. As for “TATATATATAACAACACACACAGATCATAAAACTGC [CACACA_site2161]”, the figure is 10.08 ± 0.071; as for “AAAAAAAAAAAAAACACACACAAATTTAATATATAT [CACACA_site1695]”, 9.89 ± 0.14; as for “AAAATTAAAGTAAGGACACACATATATAATACATAT [CACACA_site823]”, 11.1 ± 0.7. Next, “TACACCAAAAAAAAACGTACAAAATCCCACCCAGAC [XGTACX_site4622]”: 11.4 ± 0.54; “AAAAAAAAAAAAAAAACACACACAAATTTAATATAT [CACACA_site8492]”: 10.22 ± 0.092. Next, “TACCTAATATGTTATACACACATTAGAAGTACATAT [CACACA_site5375]”: 11.6 ± 1.1; “TGTAATAACGTTATAAAAAGTATAAAAAAAAAAAAA [CACACA_negctrl_site943]”: 9.8 ± 0.45; “TTATTTTTATTATTTTGTATATATATTTATAGAAAA [XGTACX_negctrl_site465]”: 9.79 ± 0.16. Consider “TATATACTTTTTAATCACACTTCTTTAAAAAAAGTA [CACACA_negctrl_site1380]”, for which the “gcPBM binding intensity (ln)” value worked out at 10.2 ± 0.38.

For “TTTTAGGTCTGAATGTGTACTAAATAATATAAGTAT [XGTACX_site6554]”, the “gcPBM binding intensity (ln)” value was found to be 11.3 ± 0.88. As for “ATAAAAAAAAAAAAAAAATATATATATATATATATA [XGTACX_negctrl_site424]”, the figure is 9.84 ± 0.6; as for “AATAAATAAATAAATTAATAAATTAATAAATTAATA [GTGCAC_negctrl_site37]”, 9.21 ± 0.2; as for “CACACAAAGGAATATACACACATATTTATATTTATA [CACACA_site7841]”, 9.905 ± 0.035. Next, “GTATATAATTTTTTATGTACTAAATTATATGTTTTT [XGTACX_site4907]”: 10.9 ± 0.61. “ATCTATTTGTAAAGGGTGCGCATATCAATAAAAAAT [GTGCAC_site9503]”: the “gcPBM binding intensity (ln)” value stood at 10.5 ± 0.43. Next, “CAAAATTTTTATAAGTCACACATTATCTAAGCTTAT [CACACA_site5747]”: 10.14 ± 0.085. Consider CTTATTTTGTTATAAGTGCATTTTTTAAAATTTCTT, for which the “gcPBM binding intensity (ln)” value came out at 10.16 ± 0.057. “GGAAGAAAACTTAGGTGTACATATAAAACGATATAA [XGTACX_site3118]”: the “gcPBM binding intensity (ln)” value worked out at 11.5 ± 0.93. As for “TATGAACACAGACACACACACAAAAAAAAAAAAAAA [CACACA_site7037]”, the figure is 10.1 ± 0.59; as for “ATAGTATACAGACACACACACACACCGATATATATA [CACACA_site8511]”, 10.1 ± 0.13; as for “TACTAACATAAAGACACACACCACATAAAATAAATA [CACACA_site7663]”, 10.1 ± 0.14. Consider “TATTTTTAATATTTTGCATGCAGTATTTTATAAAAT [TGCATGCA_site250]”, for which the “gcPBM binding intensity (ln)” value came to 10.1 ± 0.16. As for “ACAATTCCCGTATGATGTACTTTTTTCCACTTTTTC [XGTACX_site1811]”, the figure is 11.5 ± 0.91; as for “TATACCTTTGCGTGTGCATGCGCTTATATATATTTT [TGCATGCA_site152]”, 9.97 ± 0.057. Next, “TTTATGTGTATGTTTACACACATAAAAAAATATATG [CACACA_site3039]”: 10.2 ± 0.27; “TATGTTATTATTTGTACACACACATATATATCCTTG [CACACA_site5910]”: 11.2 ± 0.61. Regarding “AACAAATATCCCAAAAGTACACATATAAAAAAAAAA [XGTACX_site4126]”, the “gcPBM binding intensity (ln)” value is 11.3 ± 0.92.

With TTTTTGTTATTATGTGTGCACATATATATATATATA, the “gcPBM binding intensity (ln)” value was 10.6 ± 0.54.

On to “CATACACCCAGACACACACACATATATATATATATA [CACACA_site634]”, for which the “gcPBM binding intensity (ln)” value was 10.3 ± 0.39. As for “ATTATCTTATGTTATTTATTTGTCCCACATTTGTTA [TGCATGCA_negctrl_site402]”, the figure is 10.8 ± 0.68. As for “TTTTTTTTTTTTGGTAGTACATAATATTAATATAAT [XGTACX_site4422]”, the figure is 11.6 ± 1. Next, “TATATTTTCCTGCAAACACACATATAAATGGGTAGA [CACACA_site4451]”: 9.98 ± 0.014; “GATATTTGTTCATATACACACTTTTGATAAAATATG [CACACA_site4807]”: 10.33 ± 0.085; ATATATATATATATGGTGCATGAAAATTTACTTTGA: 10.1 ± 0.31.

“ATATACTCATTTAATACACACAAAGAGAAAATTAAT [CACACA_site1923]”: the “gcPBM binding intensity (ln)” value was 10.3 ± 0.34.

In the case of “ATAGTACAACAGGTTCTTGACAAACAATATGAATGT [GTGCAC_negctrl_site442]”, the “gcPBM binding intensity (ln)” value worked out at 11 ± 0.83. In the case of “TTTATATAATTTTTTTGTACATATATATGAATACAT [XGTACX_site2316]”, the “gcPBM binding intensity (ln)” value stood at 11 ± 0.64.
